# Laboratory results: US20120263739A1, “ANTI INTEGRIN ANTIBODIES LINKED TO NANOPARTICLES LOADED WITH CHEMOTHERAPEUTIC AGENTS” (MERCK PATENT GMBH, priority 2009, published 2012)
# Experiments:
# [1] = Particle content by microgravimetry; assay type: physicochemical; conditions: mean ± SD; n = 3; 100% crosslinking
# Experimental: (§1) Nanoparticles were analyzed with regard to particle diameter and polydispersity by photon correlation spectroscopy (PCS) using a Malvern Zetasizer 3000HSA (Malvern Instruments Ltd., Malvern, UK). The zetapotential was measured with the same instrument by Laser Doppler microelectrophoresis. Prior to both measurements the samples were diluted with filtered (0.22 μm) purified water. Particle content was determined by microgravimetry. For this purpose 50.0 μl of the nanoparticle suspension was pipetted into an aluminium weighing dish and dried for 2 h at 80° C. After 30 min of storage in an exsiccator the samples were weighed on a micro balance (Sartorius, Germany).
# [2] = test system: αvβ3 positive melanoma cells M21 on vitronectin; assay: Kinetic of cell detachment, transmitted light time lapse microscopy; assay type: cell-based; conditions: total incubation time 1-2 d
# [3] = Zetapotential by Laser Doppler microelectrophoresis; assay type: physicochemical; conditions: mean ± SD; n = 3; 100% crosslinking
# Experimental: as §1
# [4] = test system: αvβ3 integrin positive melanoma cells M21; assay: Cell detachment from vitronectin coated surface; assay type: cell-based; conditions: 4 ng/μl, 4 h at 37° C.
# Experimental: FIG. 9: Cell detachment from vitronectin coated surface. For cell detachment assay, 96-well ELISA plates were coated with vitronectin and cells were allowed to attach and spread for 1 h. Then, 4 ng/μl of free DI17E6 or the different unloaded or doxorubicin nanoparticulate formulations were added and the plates were incubated for additional 4 h at 37° C. to induce detachment (concentrations are calculated referred to DI17E6 or equivalent NP amounts). Detached cells were removed and remaining attached cells were stained with CyQUANT GR and counted against untreated control as described in the manufacturer's instructions manual. (Internal control of each experiment n=10, one representative experiment out of 9 independent experiments is shown.)
# For cell detachment assays, 96-well ELISA plates were coated with vitronectin as described above. After blocking, cells were allowed to attach and spread for 1 h in cell adhesion medium. Then, 4 ng/μl or 10 ng/μl of either free DI17E6 or the different nanoparticulate formulations (referred to free mAb) were added and the plates were incubated for additional 4 h at 37° C. to induce detachment. Subsequently, plates were washed and processed as for cell adhesion assay. Specific inhibition of attachment or induction of detachment were determined relative to vitronectin-coated surfaces blocked with BSA.
# [5] = Antibody bound to nanoparticle surface (SEC of supernatant); assay type: physicochemical
# Experimental: For the thiolation step of the antibodies, DI17E6 or IgG were dissolved in phosphate buffer pH 8.0 at a concentration of 1.0 mg/ml. For the introduction of thiol groups DI17E6 or IgG, respectively, were incubated with a 50 fold molar excess of 2-iminothiolane solution (c=1.14 mg/ml; 40.2 μl) for 2 h as previously described by Steinhauser et al. (2006). The antibodies were purified by size exclusion chromatography (SEC, D-Salt™ Dextran Desalting column). The resulting solutions contained thiolated antibody (DI17E6 or IgG, respectively) at a concentration of about 500 μg/ml. For the coupling reaction 1.0 ml of the sulfhydryl-reactive nanoparticle suspension was incubated with 1.0 ml of the thiolated DI17E6 or IgG, respectively, to achieve a covalent linkage between antibody and the nanoparticle system. For the preparation of samples with adsorptively attached antibody, 1.0 ml of the mPEG5000-SPA modified nanoparticles were incubated with 1.0 ml of thiolated DI17E6 or IgG, respectively. […] To determine unbound antibody the resulting supernatants were collected and analyzed by size exclusion chromatography (SEC) as described above. The amount of antibody bound to the nanoparticle surface was calculated as difference between the amount of antibody obtained after thiolation and purification and the amount of antibody determined in the supernatant obtained after the conjugation step.
# [6] = Particle diameter and polydispersity by photon correlation spectroscopy; assay type: physicochemical; conditions: mean ± SD; n = 3; 100% crosslinking
# Experimental: as §1
# [7] = test system: αv-defective melanoma cells M21L; assay: Cellular binding of nanoparticulate formulations, flow cytometry (FACS); assay type: cell-based; conditions: 2 ng/μl, 4 h at 37° C.
# Experimental: (§2) Cellular binding: αvβ3 integrin-positive melanoma cells M21 and αv-negative melanoma cells M21L are incubated with DI17E6-coupled nanoparticles (NP-DI17E6) or nanoparticles coupled to an unspecific control mAb IgG (NP-IgG). […] Both nanoparticle preparations show low binding to M21L cells (FIG. 4D).
# (§3) FIG. 4: Cellular binding of unloaded and doxorubicin loaded nanoparticulate formulations. αvβ3 integrin positive melanoma cells M21 (A and C) and αv-defective melanoma cells M21L (B and D) were treated with 2 ng/μl of the different unloaded (A and B) or doxorubicin loaded (C and D) nanoparticulate formulations for 4 h at 37° C. (concentrations are calculated referred to DI17E6 or equivalent NP amounts). Flow cytometry (FACS) analysis was performed to quantify their cellular binding. The data is shown as histogram of the FL1-H-channel (autofluorescence of the nanoparticles). Green: NP-DI17E6 and NP-Dox-DI17E6 respectively, red: NP-IgG and NP-Dox-IgG respectively, blue: untreated control. […]
# (§4) M21 or M21L cells were cultured in 24-well plates (Greiner, Frickenhausen, Germany) and treated with the different nanoparticle formulations for 4 h at 37° C. […] Control nanoparticles without DI17E6 modification were used in equivalent nanoparticle quantities. […] Nanoparticles could be detected at 488/520 nm.
# [8] = test system: αvβ3 integrin positive melanoma cells M21; assay: as above; assay type: cell-based; conditions: 2 ng/μl, 4 h at 37° C.
# Experimental: as §2, §3, §4
molecule,measurement,setting,value
"NP-DI17E6 (conjugate, left off: another chain or arm of the molecule; things letters cannot carry; small tags and cut ends) heavy: QVQLQQSGGELAKPGASVKVSCKASGYTFSSFWMHWVRQAPGQGLEWIGYINPRSGYTEYNEIFRDKATMTTDTSTSTAYMELSSLRSEDTAVYYCASFLGRGAMDYWGQGTTVTVSSASTKGPSVFPLAPCSRSTSESTAALGCLVKDYFPEPVTVSWNSGALTSGVHTFPAVLQSSGLYSLSSVVTVPSSNFGTQTYTCNVDHKPSNTKVDKTVEPKSSDKTHTCPPCPAPPVAGPSVFLFPPKPKDTLMISRTPEVTCVVVDVSHEDPEVQFNWYVDGVEVHNAKTKPREEQAQSTFRVVSVLTVVHQDWLNGKEYKCKVSNKGLPAPIEKTISKTKGQPREPQVYTLPPSREEMTKNQVSLTCLVKGFYPSDIAVEWESNGQPENNYKTTPPMLDSDGSFFLYSKLTVDKSRWQQGNVFSCSVMHEALHNHYTQKSLSLSPGK light: DIQMTQSPSSLSASVGDRVTITCRASQDISNYLAWYQQKPGKAPKLLIYYTSKIHSGVPSRFSGSGSGTDYTFTISSLQPEDIATYYCQQGNTFPYTFGQGTKVEIKRTVAAPSVFIFPPSDEQLKSGTASVVCLLNNFYPREAKVQWKVDNALQSGNSQESVTEQDSKDSTYSLSSTLTLSKADYEKHKVYACEVTHQGLSSPVTKSFNRGEC",Particle content,[1],15.92 ± 0.60 mg/mL
same,Detachment [h after incubation],[2],2 to 22 h
same,Zetapotential,[3],−37.4 ± 2.9 mV
same,Cell detachment from vitronectin coated surfaces,[4],cell detachment of αvβ3 positive melanoma cells M21 from vitronectin coated surfaces is also possible
same,Covalent linkage of antibody to the particle surface,[5]; covalent linkage,14-18 μg antibody/mg nanoparticle
same,Antibody binding efficiency,"[5]; mean ± SD, n = 3, antibody per mg nanoparticle",16.10 ± 1.90 µg/mg
same,Particle diameter,[6],181.4 ± 16.4 nm
same,Polydispersity,[6],0.026 ± 0.013
same,Cellular binding to M21L cells,[7],comparable binding
same,Cellular binding to M21 cells,[8],higher binding to M21 cells than NP-IgG
